# In the supplement of paper PMC8728848:
# The other results are listed elsewhere or left out.
# B1: CFEM-PPm (Pichia pastoris), F2QPV1 (protein)
# chain: AVATPPACLLACAAEVVKESSDCDALNNIQCICENEGSAIHACLESTCPDGLSSTALQSFEDVCE
# Legend:
# Test in all cases: glycan array binding signal (z-score within array); higher = stronger binding
# Conditions in all cases: glycan notation: IUPAC condensed, linker removed
# [1] = biological target: Neu5Ac(a2-3)Gal(b1-3)GlcNAc6S
# How it was run: (§1)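 Negative Z-scores can be read as non-binding. The Z-score is calculated within each array and then averaged across arrays of one protein sequence at different concentrations or buffers and across linkers. Arrays, 3228 in all, were curated from the Consortium for Functional Glycomics database and kept only where the protein sequence was available.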
# [2] = biological target: Neu5Ac(a2-3)Gal(b1-3)[Fuc(a1-4)]GlcNAc
# How it was run: as §1
# [3] = biological target: Neu5Ac(a2-3)Gal(b1-3)[Fuc(a1-4)]GlcNAc(b1-3)Gal(b1-3)[Fuc(a1-4)]GlcNAc
# How it was run: as §1
# [4] = biological target: Neu5Ac(a2-3)Gal(b1-3)[Fuc(a1-4)]GlcNAc(b1-3)Gal(b1-4)[Fuc(a1-3)]GlcNAc
# How it was run: as §1
# [5] = biological target: Neu5Ac(a2-3)Gal(b1-3)[GlcNAc(b1-6)]GalNAc
# How it was run: as §1
# [6] = biological target: Neu5Ac(a2-3)Gal(b1-3)[Neu5Ac(a2-6)]GalNAc
# How it was run: as §1
# [7] = biological target: Neu5Ac(a2-3)Gal(b1-3)[Neu5Ac(a2-6)]GlcNAc(b1-3)[Fuc(a1-3)[Gal(b1-4)]GlcNAc(b1-6)]Gal(b1-4)Glc
# How it was run: as §1
# [8] = biological target: Neu5Ac(a2-3)Gal(b1-3)]Neu5Ac(a2-3)Gal(b1-4)]GlcNAc
# How it was run: as §1
# Neu5Ac(a2-3)Gal(b1-4)Glc = biological target: Neu5Ac(a2-3)Gal(b1-4)Glc
# How it was run: as §1
# [9] = biological target: Neu5Ac(a2-3)Gal(b1-4)GlcNAc
# How it was run: as §1
# [10] = biological target: Neu5Ac(a2-3)Gal(b1-4)GlcNAc(b1-2)Man
# How it was run: as §1
# [11] = biological target: Neu5Ac(a2-3)Gal(b1-4)GlcNAc(b1-2)Man(a1-3)[GlcNAc(b1-4)][Neu5Ac(a2-3)Gal(b1-4)GlcNAc(b1-2)Man(a1-6)]Man(b1-4)GlcNAc(b1-4)GlcNAc
# How it was run: as §1
# [12] = biological target: Neu5Ac(a2-3)Gal(b1-4)GlcNAc(b1-2)Man(a1-3)[Neu5Ac(a2-3)Gal(b1-4)GlcNAc(b1-2)Man(a1-6)]Man(b1-4)GlcNAc(b1-4)GlcNAc
# How it was run: as §1
# [13] = biological target: Neu5Ac(a2-3)Gal(b1-4)GlcNAc(b1-2)Man(a1-3)[Neu5Ac(a2-3)Gal(b1-4)GlcNAc(b1-2)Man(a1-6)]Man(b1-4)GlcNAc(b1-4)[Fuc(a1-6)]GlcNAc
# How it was run: as §1
# [14] = biological target: Neu5Ac(a2-3)Gal(b1-4)GlcNAc(b1-2)Man(a1-3)[Neu5Ac(a2-6)Gal(b1-4)GlcNAc(b1-2)Man(a1-6)]Man(b1-4)GlcNAc(b1-4)GlcNAc
# How it was run: as §1
# [15] = biological target: Neu5Ac(a2-3)Gal(b1-4)GlcNAc(b1-2)[Neu5Ac(a2-3)Gal(b1-4)GlcNAc(b1-4)]Man(a1-3)[GlcNAc(b1-4)][Neu5Ac(a2-3)Gal(b1-4)GlcNAc(b1-2)[Neu5Ac(a2-3)Gal(b1-4)GlcNAc(b1-6)]Man(a1-6)]Man(b1-4)GlcNAc(b1-4)GlcNAc
# How it was run: as §1
# [16] = biological target: Neu5Ac(a2-3)Gal(b1-4)GlcNAc(b1-2)[Neu5Ac(a2-3)Gal(b1-4)GlcNAc(b1-4)]Man(a1-3)[GlcNAc(b1-4)][Neu5Ac(a2-3)Gal(b1-4)GlcNAc(b1-4)Man(a1-6)]Man(b1-4)GlcNAc(b1-4)GlcNAc
# How it was run: as §1
# [17] = biological target: Neu5Ac(a2-3)Gal(b1-4)GlcNAc(b1-2)[Neu5Ac(a2-3)Gal(b1-4)GlcNAc(b1-6)]Man(a1-6)[Neu5Ac(a2-3)Gal(b1-4)GlcNAc(b1-2)Man(a1-3)]Man(b1-4)GlcNAc(b1-4)GlcNAc
# How it was run: as §1
# [18] = biological target: Neu5Ac(a2-3)Gal(b1-4)GlcNAc(b1-2)[Neu5Ac(a2-3)Gal(b1-4)GlcNAc(b1-6)]Man(a1-6)[Neu5Ac(a2-3)Gal(b1-4)GlcNAc(b1-2)Man(a1-3)][GlcNAc(b1-4)]Man(b1-4)GlcNAc(b1-4)GlcNAc
# How it was run: as §1
# [19] = biological target: Neu5Ac(a2-3)Gal(b1-4)GlcNAc(b1-3)Gal
# How it was run: as §1
# [20] = biological target: Neu5Ac(a2-3)Gal(b1-4)GlcNAc(b1-3)Gal(b1-3)GlcNAc
# How it was run: as §1
# [21] = biological target: Neu5Ac(a2-3)Gal(b1-4)GlcNAc(b1-3)Gal(b1-4)GlcNAc
# How it was run: as §1
binder,measurement,setting,value
B1,glycan array binding signal (z-score),[1],-0.363
same,glycan array binding signal (z-score),[2],-0.244
same,glycan array binding signal (z-score),[3],-0.227
same,glycan array binding signal (z-score),[4],-0.309
same,glycan array binding signal (z-score),[5],-0.262
same,glycan array binding signal (z-score),[6],-0.098
same,glycan array binding signal (z-score),[7],-0.239
same,glycan array binding signal (z-score),[8],-0.288
same,glycan array binding signal (z-score),Neu5Ac(a2-3)Gal(b1-4)Glc,-0.127
same,glycan array binding signal (z-score),[9],-0.183
same,glycan array binding signal (z-score),[10],-0.133
same,glycan array binding signal (z-score),[11],-0.184
same,glycan array binding signal (z-score),[12],-0.218
same,glycan array binding signal (z-score),[13],-0.229
same,glycan array binding signal (z-score),[14],-0.367
same,glycan array binding signal (z-score),[15],-0.328
same,glycan array binding signal (z-score),[16],-0.234
same,glycan array binding signal (z-score),[17],-0.28
same,glycan array binding signal (z-score),[18],-0.405
same,glycan array binding signal (z-score),[19],-0.315
same,glycan array binding signal (z-score),[20],-0.197
same,glycan array binding signal (z-score),[21],-0.249
